The numbers were not newly measured in US20110020434A1, “NA[…]-[…] COMPOSITIONS” (priority 2005, published 2011), which cites them from elsewhere.

For the data set the following is noted: Loehr et al. 1968; cited from earlier work.

The term pKa denotes the pH at which an ionisable group is half protonated. For arsenous acid [H3AsO3], the pKa is on record as 9.3.
